In patent US20250221953A1 (The University of Chicago, priority 2022, published 2025):
Structures can show the parent of a compound that is named as a salt.

System: PD-1^+ Jurkat T cells co-cultured with H596 (PD-L1^+) cells
Test: 1st screen 1b: rescue of PD-L1/PD-1 dependent exhaustion of PD-1+ Jurkat T cells in co-culture (IL-2 ELISA)
Format: cell-based, human
Settings: 1st screen 1b (Table 4): rescue of PD-L1/PD-1 dependent exhaustion of PD-1 expressing Jurkat T cells co-cultured with PD-L1-expressing H596 cells

`CC/C=C\C/C=C\C/C=C\C/C=C\C/C=C\CCCCCC(=O)O` [Docosapentaenoic acid (DPA)] was tested. Which “Relative changed percentage (%)” value did it give?
Its value is 29.35%.

With `C=C1CC[C@H](O)C/C1=C/C=C1\CCC[C@]2(C)[C@@H]([C@H](C)/C=C/[C@H](C)C(C)C)CC[C@@H]12` [ERGOCALCIFEROL] as the compound, how does the “Relative changed percentage (%)” value read?
Its value is −35.92%.

`C[C@]12CC[C@@H]3c4ccc(O)cc4CC[C@H]3[C@@H]1C[C@@H](O)[C@@H]2O` [ESTRIOL] was tested. Which “Relative changed percentage (%)” value did it give?
The value was −10.31%.

With `C[C@]12CC[C@@H]3c4ccc(O)cc4CC[C@H]3[C@@H]1CCC2=O` [ESTRONE] as the compound, how does the “Relative changed percentage (%)” value read?
The value was −34.83%.

With `CCCCCCCC/C=C\CCCCCCCCCCCC(=O)O` [Erucic acid] as the compound, how does the “Relative changed percentage (%)” value read?
The value was 19.78%.

How did the “Relative changed percentage (%)” value turn out when `NS(=O)(=O)c1cc(C(=O)O)c(NCc2ccco2)cc1Cl` [FUROSEMIDE/LASIX, FUROSEMIDE, reference compound] was run?
Its value is 93.84%.

`O=C([O-])/C=C/C(=O)[O-].[Fe+2]` [Ferrous Fumarate] was tested. Which “Relative changed percentage (%)” value did it give?
The value was 2.955%.

With `OCC(O)CO` [GLYCEROL MOLECULAR BIOLOGY REAGENT, GLYCEROL] as the compound, how does the “Relative changed percentage (%)” value read?
Its value is 23.62%.

`N=C(N)N` [GUANIDINE HYDROCHLORIDE] was tested. Which “Relative changed percentage (%)” value did it give?
Its value is 62.93%.

For `Nc1nc2nc[nH]c2c(=O)[nH]1` [GUANINE], which “Relative changed percentage (%)” value is on record?
Its value is 236%.

For `OC[C@H]1O[C@@H](Oc2c[nH]c3ccccc23)[C@H](O)[C@@H](O)[C@@H]1O` [INDOXYL beta-D-GLUCOSIDE], which “Relative changed percentage (%)” value is on record?
Its value is 34.0751%.

With `O[C@H]1[C@H](O)[C@@H](O)[C@H](O)[C@@H](O)[C@H]1O` [Inositol] as the compound, how does the “Relative changed percentage (%)” value read?
Its value is 25.4%.

For `C[C@H](O)C(=O)[O-].[Na+]` [L(+)LACTIC ACID SODIUM], which “Relative changed percentage (%)” value is on record?
Its value is −29.31%.

For `C[N+](C)(C)[C@@H](Cc1c[nH]c(=S)[nH]1)C(=O)[O-]` [L-(+)-ERGOTHIONEINE INNER SALT], which “Relative changed percentage (%)” value is on record?
Its value is 1.808%.

Which “Relative changed percentage (%)” value does the source give for `O=C1O[C@H]([C@@H](O)CO)C(O)=C1O` [L-ASCORBIC ACID BIOXTRA,] here?
The value was −52.46%.

With `N=C(N)NCCC[C@H](N)C(=O)O` [L-Arginine] as the compound, how does the “Relative changed percentage (%)” value read?
Its value is −34.94%.

For `NC(=O)C[C@H](N)C(=O)O` [L-Asparagine], which “Relative changed percentage (%)” value is on record?
Its value is −12.81%.

`N[C@@H](CC(=O)O)C(=O)O` [L-Aspartic Acid] was tested. Which “Relative changed percentage (%)” value did it give?
The value was −45.5%.

Which “Relative changed percentage (%)” value does the source give for `N[C@@H](CC(=O)[O-])C(=O)[O-].[K+].[K+]` [L-Aspartic acid potassium salt] here?
Its value is 36.7%.

With `NC(=O)NCCC[C@H](N)C(=O)O` [L-CITRULLINE] as the compound, how does the “Relative changed percentage (%)” value read?
Its value is 137.2%.

How did the “Relative changed percentage (%)” value turn out when `N[C@@H](CS)C(=O)O` [L-Cysteine] was run?
Its value is −23.89%.

With `N[C@@H](CSSC[C@H](N)C(=O)O)C(=O)O` [L-Cystine] as the compound, how does the “Relative changed percentage (%)” value read?
The value was 14.13%.

`N[C@@H](CCC(=O)O)C(=O)O` [L-Glutamic Acid] was tested. Which “Relative changed percentage (%)” value did it give?
Its value is −17.58%.

With `NC(=O)CC[C@H](N)C(=O)O` [L-Glutamine] as the compound, how does the “Relative changed percentage (%)” value read?
Its value is 32.61%.

`Cl.N[C@@H](Cc1c[nH]cn1)C(=O)O` [L-Histidine hydrochloride] was tested. Which “Relative changed percentage (%)” value did it give?
Its value is −46.68%.

With `CC[C@H](C)[C@H](N)C(=O)O` [L-Isoleucine] as the compound, how does the “Relative changed percentage (%)” value read?
The value was 31.56%.

How did the “Relative changed percentage (%)” value turn out when `CC(C)C[C@H](N)C(=O)O` [L-Leucine] was run?
Its value is −2.664%.

How did the “Relative changed percentage (%)” value turn out when `Cl.NCCCC[C@H](N)C(=O)O` [L-Lysine hydrochloride] was run?
Its value is 11.29%.

`Cl.NCCC[C@H](N)C(=O)O` [L-ORNITHINE MONOHYDROCHLORIDE] was tested. Which “Relative changed percentage (%)” value did it give?
The value was −48.43%.

`N[C@@H](Cc1ccccc1)C(=O)O` [L-Phenylalanine] was tested. Which “Relative changed percentage (%)” value did it give?
The value was −8.744%.

How did the “Relative changed percentage (%)” value turn out when `N[C@@H](CO)C(=O)O` [L-Serine] was run?
Its value is 18.76%.

`N[C@@H](Cc1cc(I)c(Oc2cc(I)c(O)c(I)c2)c(I)c1)C(=O)O` [L-THYROXINE] was tested. Which “Relative changed percentage (%)” value did it give?
The value was −38.36%.

How did the “Relative changed percentage (%)” value turn out when `C[C@@H](O)[C@H](N)C(=O)O` [L-Threonine] was run?
The value was 49.48%.

Which “Relative changed percentage (%)” value does the source give for `N[C@@H](Cc1c[nH]c2ccccc12)C(=O)O` [L-Tryptophan] here?
Its value is 76.34%.

How did the “Relative changed percentage (%)” value turn out when `N[C@@H](Cc1ccc(O)cc1)C(=O)O` [L-Tyrosine] was run?
Its value is −27.69%.

For `CC(C)[C@H](N)C(=O)O` [L-Valine], which “Relative changed percentage (%)” value is on record?
The value was −20.77%.

For `[S]=[Pb]` [LEAD(II) SULFIDE], which “Relative changed percentage (%)” value is on record?
The value was −39.31%.

For `CC(=O)CC(=O)[O-].[Li+]` [LITHIUM ACETOACETATE/Acetoacetic acid, LITHIUM ACETOACETATE], which “Relative changed percentage (%)” value is on record?
Its value is −8.413%.

With `CC1=C[C@H](O)CC(C)(C)[C@H]1/C=C/C(C)=C/C=C/C(C)=C/C=C/C=C(C)/C=C/C=C(C)/C=C/C1=C(C)C[C@@H](O)CC1(C)C` [Lutein] as the compound, how does the “Relative changed percentage (%)” value read?
The value was 2.386%.

How did the “Relative changed percentage (%)” value turn out when `CC(C)=CCC/C(C)=C/C=C/C(C)=C/C=C/C(C)=C/C=C/C=C(C)/C=C/C=C(C)/C=C/C=C(\C)CCC=C(C)C` [Lycopene] was run?
Its value is −19.7%.

For `[Cl-].[Cl-].[Mg+2]` [MAGNESIUM CHLORIDE ANHYDROUS], which “Relative changed percentage (%)” value is on record?
The value was −38.6%.

With `COc1ccc2[nH]cc(CCNC(C)=O)c2c1` [MELATONIN CRYSTALLINE/melatonin, melatonin] as the compound, how does the “Relative changed percentage (%)” value read?
The value was 13.63%.

Which “Relative changed percentage (%)” value does the source give for `[Cl][Hg][Cl]` [MERCURY(II) CHLORIDE] here?
The value was 22.69%.

With `O[C@H]1[C@H](O)[C@@H](O)[C@H](O)[C@@H](O)[C@H]1O` [MYO-INOSITOL] as the compound, how does the “Relative changed percentage (%)” value read?
The value was −68.77%.

`N[C@@H](CC(=O)[O-])C(=O)[O-].[Mg+2]` [Magnesium Aspartate] was tested. Which “Relative changed percentage (%)” value did it give?
The value was 27.84%.

How did the “Relative changed percentage (%)” value turn out when `O=C(O)CC(O)C(=O)O` (stereo not drawn) [Malic acid] was run?
Its value is 25.66%.

Which “Relative changed percentage (%)” value does the source give for `CS(C)(=O)=O` [Methylsulfonylmethane] here?
The value was −40.49%.

How did the “Relative changed percentage (%)” value turn out when `CCCCCCCCCCCCCC(=O)O` [Myristic Acid] was run?
The value was −55.85%.

For `CCCC/C=C\CCCCCCCC(=O)O` [Myristoleic acid], which “Relative changed percentage (%)” value is on record?
The value was 11.08%.

For `CC(=O)N[C@H]1C(O)O[C@H](CO)[C@@H](O)[C@@H]1O` (stereo partly drawn) [N-acetyl D-glucosamine], which “Relative changed percentage (%)” value is on record?
The value was −27.21%.

With `NC[C@H](O)c1ccc(O)c(O)c1` [NOREPINEPHRINE] as the compound, how does the “Relative changed percentage (%)” value read?
Its value is −37.51%.

How did the “Relative changed percentage (%)” value turn out when `CCCCCCCC/C=C\CCCCCCCCCCCCCC(=O)O` [Nervonic acid] was run?
Its value is 32.9066%.

Which “Relative changed percentage (%)” value does the source give for `COc1nc(N)nc2nc[nH]c12` [O-METHYLGUANINE] here?
The value was −16.54%.

`O=C(O)C(=O)O` [OXALIC ACID SODIUM SALT] was tested. Which “Relative changed percentage (%)” value did it give?
The value was 7.933%.

How did the “Relative changed percentage (%)” value turn out when `CC[C@H](C)[C@@H]1NC(=O)[C@H](Cc2ccc(O)cc2)NC(=O)[C@@H](N)CSSC[C@@H](C(=O)N2CCC[C@H]2C(=O)N[C@@H](CC(C)C)C(=O)NCC(N)=O)NC(=O)[C@H](CC(N)=O)NC(=O)[C@H](CCC(N)=O)NC1=O` [OXYTOCIN] was run?
The value was −68.75%.

For `CC(C)CCCC(C)CCCC(C)CCCC(C)CC(=O)O` (stereo not drawn) [PHYTANIC ACID], which “Relative changed percentage (%)” value is on record?
Its value is −12.92%.

`[Br-].[K+]` [POTASSIUM BROMIDE] was tested. Which “Relative changed percentage (%)” value did it give?
The value was 30.33%.

For `[Cl-].[K+]` [POTASSIUM CHLORIDE/potassium, POTASSIUM CHLORIDE], which “Relative changed percentage (%)” value is on record?
Its value is −43.64%.

Which “Relative changed percentage (%)” value does the source give for `CC(=O)O[C@H]1CC[C@@]2(C)C(=CC[C@H]3[C@@H]4CC[C@H](C(C)=O)[C@@]4(C)CC[C@@H]32)C1` [PREGNENOLONE ACETATE/pregnenolone] here?
Its value is −76.95%.

Same assay, conditions: 1st screen 1b (Table 4): rescue of PD-L1/PD-1 dependent exhaustion of PD-1 expressing Jurkat T cells co-cultured with PD-L1-expressing H596 cells; Hydrochloride

Which “Relative changed percentage (%)” value does the source give for `Cl.N[C@H]1C(O)O[C@H](CO)[C@@H](O)[C@@H]1O` (stereo partly drawn) [Glucosamine Hydrochloride] here?
Its value is 23.41%.
